The list shows a part of the results.
B1: chr10:5807933:5807934:-_ENSG00000057608_ENST00000380191|hu_mus|FALSE|FALSE (ssRNA)
RNA: GGGAGUUCUACAGUCCGACGAUCGGGCUUACAGUAUUGAUUUCAUACAAUAUACAUUAUUUGCCAAAUUUUAAGUUUGUCCUAAUUAUUACAUAAUAUGUACUGCUGUUAGUCUUCUCCAUAAAUGUCAUUCUUCUUGCGCUUCAACAGAGGAUUGAGCAUCA
B2: chr3:133545784:133545785:-_ENSG00000154917_ENST00000285208|hu_mus|FALSE|FALSE (ssRNA)
RNA: GGGAGUUCUACAGUCCGACGAUCGAGGAUGUGAGUGUGUGUAUGUGUGCGCGCGAAGGGUGUAUACACAAGUCUAUCUCUAUGUAUAAUUAUGUACACACAUAUAAAAACUAAACACGUGACGUUUCGAUUAUGCUCGUACAUCAACAGAGGAUUGAGCAUCA
B3: 13810723_13813188_1792_CDS_ENSMUSG00000022682_ENSMUST00000023363|mouse|control|control (ssRNA)
RNA: GGGAGUUCUACAGUCCGACGAUCUACCUCCUUUUUAGUAGAUUUCUUAAACUCCUGAAGCUCUUCAGCACUCCCAUCUUCCCAAAUCUGAUAAAUAGGAUCAAUGAACUUCUUUGACCUCUUAAGCACACAAGGGUCAAAGGGCAACAGAGGAUUGAGCAUCA
B4: chr22:32879901:32879902:+_ENSG00000100225_ENST00000397426|hu_mus|hu_hu_hu_mus_False|48_78 (ssRNA)
RNA: GGGAGUUCUACAGUCCGACGAUCCUCUUCCAUACUCAUGGCAUCCUGAAUUGACUCAGCUUCAAAAUUUUGACUAGGCCCUUCCAUACUGUCGUCAGUCCAGGCAUCAAAUGGGGUGGCCUGUCCUUGGGAUGAAUCAGUCCCCAACAGAGGAUUGAGCAUCA
B5: chr5:128441001:128441002:+_ENSG00000066583_ENST00000173527|hu_hu|FALSE|FALSE (ssRNA)
RNA: GGGAGUUCUACAGUCCGACGAUCGCACACAUGAGUUUCUACUCCAAAUAAUACAACACUCCUGACUCCGGGAAUCUCUGCUAAUGCCGCUUCUACUUCUGGUAAUACCAUUGAAAACUUGGUCUUUGGAAGUACCAGUUUUACCAACAGAGGAUUGAGCAUCA
B6: chr1:120459247:120459248:-_ENSG00000134250_ENST00000256646|hu_hu|FALSE|FALSE (ssRNA)
RNA: GGGAGUUCUACAGUCCGACGAUCCCGAGCCACAUCCCGGGGAAGACGAUCCAUAUGGUCUGUGAUGUCUCGAUUGGCAAAAUGGUCUAACAGGAUCUUGGCUGCUUCAUAGCUCCCCUCCCGGGCAGCAAGAAACAGAGGUGUCAACAGAGGAUUGAGCAUCA
B7: chr1:247070963:247070964:-_ENSG00000153207_ENST00000391829|hu_hu|FALSE|FALSE (ssRNA)
RNA: GGGAGUUCUACAGUCCGACGAUCCUGAUUUGUCCUGCUUAUGUAACUAAGAGUUGAAACAGCUGUUCCUGUUGGACUUACUAACUGGAAACACAGAUGGCGCCCUUGUCUCAUUACACUUUCUCUAAUGUGUGGUACUUCAGCCAACAGAGGAUUGAGCAUCA
B8: 17864358_17864478_2033_3pUTR_ENSMUSG00000041297_ENSMUST00000042365|mouse|control|control (ssRNA)
RNA: GGGAGUUCUACAGUCCGACGAUCUACCUUUGUUACUUGAAGCGGUGGCUUUGUUUUUGCUUUGUCGCUUUUGACGGUCCCACCACUUGAAGGAGAAGGUGCAUGCUCAGUUUUAAGUUUUUUGACUUCCUUCACAUGGUUUGUCAACAGAGGAUUGAGCAUCA
B9: chr13:3599227:3599228:-_ENSMUSG00000033799_ENSMUST00000096069|mus_hu|FALSE|FALSE (ssRNA)
RNA: GGGAGUUCUACAGUCCGACGAUCCAAGUAUGCUUUUAUGAGCUGGUGGUGCCAUAGUUUUAGAUUCCCUGUAUCGAAAAGCUACAAUUACAUAAGGACAGAUCUGUCUGGGUCGUUCAAUAACGGUGUUGCCUGAAAGUUCGUCAACAGAGGAUUGAGCAUCA
B10: chr19:16212804:16212805:+_ENSG00000167460_ENST00000300933|hu_mus|hu_hu_hu_mus_False|1_108 (ssRNA)
RNA: GGGAGUUCUACAGUCCGACGAUCAACAAAUAUGCAAUGAAGGAAAGAUGUAACAUGGAACAGCAUUAAAGCUCAGUCAGAAGGCACAUGGGCAACAAUGAUCACCCCAGCAUUCUCGCUUGGAAUGCUUAAAGACAGAUGUUUCAACAGAGGAUUGAGCAUCA
B11: chr17:65740002:65740003:+_ENSG00000130935_ENST00000581375|hu_hu|hu_hu_hu_mus_False|98_98 (ssRNA)
RNA: GGGAGUUCUACAGUCCGACGAUCAACAAAUCUUUCUCUGGAUGAAGAACAGGAAGAUUCAUAUUAAAAAAAAUAUAUAUCCAUCAAGUUAGGUGUGGUGGCCACACCUUUACUCCCAGCACUUUGGGAGGUGGAUCUCUGAGUCAACAGAGGAUUGAGCAUCA
B12: chr8:101932826:101932827:-_ENSG00000164924_ENST00000353245|hu_hu|motif|central (ssRNA)
RNA: GGGAGUUCUACAGUCCGACGAUCAAAUAUAGAAAUUCAAAUAGAAGUAACAUAAACCUGUCAUAAAUCGUAAACAAAAAACGGUUUGUGGGACAGCAUGGAUGACAAAUGGUCUACUGUGUAAAUUUUAGAAUGAGGCAGACACAACAGAGGAUUGAGCAUCA
B13: 39311740_39317387_1035_3pUTR_ENSG00000116954_ENST00000373001|human|control|control (ssRNA)
RNA: GGGAGUUCUACAGUCCGACGAUCACUUCCAUCUUCCUUUAACCCAUAUAUACAAGACACAUCAAUUACAACAUCGAUCAUGUCACAGCAAAGUUCAUAAGAUUGCAUAUCCACAGGGGAACUGUCUGUUGCAAUGUAGAUUUUCAACAGAGGAUUGAGCAUCA
B14: chr16:94664741:94664742:+_ENSMUSG00000040785_ENSMUST00000117648|mus_hu|mus_mus_mus_hu_False|48_48 (ssRNA)
RNA: GGGAGUUCUACAGUCCGACGAUCUGGUACUGAUCUUGGUAGCUGAUAUUCAGGAGAAAGGCUGGCCAAGGGUGUAUAUAUGCUGGUGAACUGCGACAAACCUGGUAACACGUUUAUGUAUGCUGGCGGUGUCUGGGUGAUAUCCAACAGAGGAUUGAGCAUCA
B15: chr11:4127340:4127341:+_ENSG00000167325_ENST00000300738|hu_mus|hu_hu_hu_mus_False|68_98 (ssRNA)
RNA: GGGAGUUCUACAGUCCGACGAUCGGCAUAGUCAGGGUGCUUAGUAGUCAAGGUCGCGGCUGUCUCAGCAGCCAAAGUGUCCAGUUCCACUGUGGUGACCCCACUAUAUAGGCCUUGGAUUACUUUCAUGGUGAUCUGAGCAGGCAACAGAGGAUUGAGCAUCA
B16: 46766122_46771938_5780_CDS_ENSG00000175216_ENST00000415402|human|control|control (ssRNA)
RNA: GGGAGUUCUACAGUCCGACGAUCGAUGCCUGUUGAAGUGGAAAUACGACCUUUGCCCUCCCUCUCCAUCUCAAUCACCCGAAGGCCUCUUUCGACAUAGCUCUGGAAGAACUGUGAGGAAUUUUUCAGAAAUGGUUCAAUGUCCAACAGAGGAUUGAGCAUCA
B17: chr5:139930402:139930403:-_ENSG00000213523_ENST00000336283|hu_hu|motif|central (ssRNA)
RNA: GGGAGUUCUACAGUCCGACGAUCUUCAUUGGCUGCCUCCUCUGAAAACAGACUCCUCUUUUCUGCAAUUAAUCUUUUAACUCCGGCCAUCCACUGACUGACCUCAGUCACAUGGUCAACCAUGAGGGAGCGGUGGAUGUCAUCCAACAGAGGAUUGAGCAUCA
B18: chr16:2011185:2011186:+_ENSG00000140990_ENST00000268668|hu_hu|FALSE|FALSE (ssRNA)
RNA: GGGAGUUCUACAGUCCGACGAUCCACGCGGCGGUACUGCCGGUGGUAGUAGUAAUACCUGUUCUUUGCGUGCUGCCGCUCUAUAAAUUCUCUCACGAGGGUCACGGGUCGGUCCACGAUGAGGUCGAACGCUUUCAUCAUGUACAACAGAGGAUUGAGCAUCA
B19: 119774456_119774576_728_3pUTR_ENSMUSG00000030172_ENSMUST00000032279|mouse|control|control (ssRNA)
RNA: GGGAGUUCUACAGUCCGACGAUCAAGCUUCAUCUUUUCUCAAGGCCCGCUCUUUCUUUAACUCUGGGCUCCAGAAGGUCUUGAUACUAUUCAUUGAUGAACUUAAUUUGCUCUCCUUUACUUCCACAUCUUUCCUCAAAAGAUCAACAGAGGAUUGAGCAUCA
B20: chr1:23884524:23884525:-_ENSG00000117318_ENST00000374561|perfect_dup|motif|central (ssRNA)
RNA: GGGAGUUCUACAGUCCGACGAUCUUUAAUAUACAUCACAUGAUUACAGAAAGUCACCUUCCUGUAAAAAAGGUACAAAAGCGGUAUACUCUAUUAUAGAGUUCAUAAUCAGGGCAGCAGAGCUUUUCUCCAAGGAAACCAGAACAACAGAGGAUUGAGCAUCA
B21: 93417266_93420901_1308_CDS_ENSG00000166004_ENST00000325212|human|control|control (ssRNA)
RNA: GGGAGUUCUACAGUCCGACGAUCUGUCCAGAGAGAUUUUUGGCUUCGGAUCUUAUUUAAUAAUUUUUUAAAAAGAACUUUUGAAGGAAUCUGUUGGGUCUUCAUUACCAAGGGAACAUCUGUUUCACUAGAACAUAUUUCAGCCAACAGAGGAUUGAGCAUCA
B22: 148538928_148539048_455_5pUTR_ENSG00000164168_ENST00000296582|human|control|control (ssRNA)
RNA: GGGAGUUCUACAGUCCGACGAUCGGAGCCCUGUUCUCUGGCUGUUUUGUCAACUCGCAUACUACGGAGAAAAAGCUGUCGGGCGACUUUACGAACAGCUCGAGCCGCCUCCUGGACCGGCGCUGUGUCUUCUGCUGCUGCUGCCAACAGAGGAUUGAGCAUCA

Each binder was assayed against T1, UNK ZnF1-3 (human, UniProt Q9C0B0 31-174) (assay: nsRBNS (natural sequence RNA bind-n-seq); RBNS binding buffer (assumed for nsRBNS): 25 mM Tris pH 7.5, 150 mM KCl, 3 mM MgCl2, 0.01% Triton X-100, 500 ug/ml BSA, 20 U/ml SUPERase-In, 4 C; UNK is unkempt and MSI1 is Musashi-1; names of the RNAs are library labels; protein concentration not given here; high values mean tight binding).
T1 sequence: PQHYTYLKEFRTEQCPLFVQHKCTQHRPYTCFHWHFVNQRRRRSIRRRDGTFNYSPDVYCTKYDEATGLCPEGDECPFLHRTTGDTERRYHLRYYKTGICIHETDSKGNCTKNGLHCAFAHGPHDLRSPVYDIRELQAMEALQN

| Binder | binding signal [enrichment R] |
| --- | --- |
| B1 | 0.571 |
| B2 | 1.57 |
| B3 | 1.08 |
| B4 | 1.09 |
| B5 | 1.46 |
| B6 | 0.987 |
| B7 | 0.785 |
| B8 | 0.188 |
| B9 | 0.972 |
| B10 | 1.37 |
| B11 | 1.56 |
| B12 | 1.79 |
| B13 | 1.08 |
| B14 | 1.05 |
| B15 | 0.898 |
| B16 | 0.956 |
| B17 | 0.719 |
| B18 | 0.37 |
| B19 | 0.382 |
| B20 | 0.905 |
| B21 | 2.54 |
| B22 | 0.698 |

From article PMC12136788
